From a collection of fitness landscapes (doi:10.1126/science.1257360)
Some of the results follow.

B1: PhoQ; a variant is named by its letters at X, in order, P23837 (parent)
chain: MKKLLRLFFPLSLRVRFLLATAAVVLVLSLAYGMVALIGYSVSFDKTTFRLLRGESNLFYTLAKWENNKLHVELPENIDKQSPTMTLIYDENGQLLWAQRDVPWLMKMIQPDWLKSNGFHEIEADVNDTSLLLSGDHSIQQQLQEVREDDDDAEMTHSVAVNVYPATSRMPKLTIVVVDTIPVELKSSYMVWSWFIYVLSANLLLVIPLLWVAAWWSLRPIEALAKEVRELEEHNRELLNPATTRELTSLVRNLNRLLKSERERYDKYRTTLTDLTHSLKTPLXXLQXXLRSLRSEKMSVSDAEPVMLEQISRISQQIGYYLHRASMRGGTLLSRELHPVAPLLDNLTSALNKVYQRKGVNISLDISPEISFVGEQNDFVEVMGNVLDNACKYCLEFVEISARQTDEHLYIVVEDDGPGIPLSKREVIFDRGQRVDTLRPGQGVGLAVAREITEQYEGKIVAGESMLGGARMEVIFGRQHSAPKDE

Variants of: B1
Assay: enrichment ratio after two sorts for PhoP signalling (ratio (wild type AVST 3.29)); higher = more functional
Conditions: with PhoP (E. coli)

Variant | enrichment ratio
WSLW | ≤ 0.25
GRGS | ≤ 0.25
MECT | 9.55
IRYD | ≤ 0.25
EHMS | ≤ 0.25
YAWI | ≤ 0.25
NTPC | ≤ 0.25
ITKA | ≤ 0.25
VIQY | ≤ 0.25
MQEH | ≤ 0.25
LFSI | ≤ 0.25
ITRG | ≤ 0.25
TYCH | 2.52
ERQP | ≤ 0.25
YMLC | ≤ 0.25
AVTM | 12.4
FANH | ≤ 0.25
VHDA | ≤ 0.25
SRRY | ≤ 0.25
VFIG | ≤ 0.25
LCFF | ≤ 0.25
DSVR | ≤ 0.25
DKRL | ≤ 0.25
GNGS | ≤ 0.25

Variant | enrichment ratio
PFMA | ≤ 0.25
NCDL | ≤ 0.25
KITW | ≤ 0.25
NGYM | ≤ 0.25
RYPY | ≤ 0.25
YNFN | ≤ 0.25
FMDF | ≤ 0.25
QHPL | ≤ 0.25
AFWW | ≤ 0.25
PYAM | ≤ 0.25
FEWR | ≤ 0.25
ASWI | 2.59
STYP | ≤ 0.25
NMHN | ≤ 0.25
VSPW | ≤ 0.25
NDWV | ≤ 0.25
SHAD | ≤ 0.25
FRWS | ≤ 0.25
QDGC | ≤ 0.25
EVYS | ≤ 0.25
NVRR | ≤ 0.25
HIYL | 0.291
EYKE | ≤ 0.25
RNVS | ≤ 0.25

Variant | enrichment ratio
VENL | ≤ 0.25
DQYT | ≤ 0.25
IGWY | ≤ 0.25
RTNC | ≤ 0.25
IIVF | ≤ 0.25
DKSE | ≤ 0.25
VIDY | ≤ 0.25
NICI | ≤ 0.25
RLIW | ≤ 0.25
DWGM | ≤ 0.25
MGMC | 5.27
HNSN | ≤ 0.25
TAMM | 2.2
FVSK | ≤ 0.25
QCHV | ≤ 0.25
VKHF | ≤ 0.25
YIIQ | ≤ 0.25
DLFT | ≤ 0.25
QWNI | ≤ 0.25
DKAL | ≤ 0.25
AYSR | ≤ 0.25
RRDS | ≤ 0.25
EAFI | ≤ 0.25
PMAI | ≤ 0.25

Variant | enrichment ratio
LMMP | ≤ 0.25
VCSI | 1.75
IPPR | ≤ 0.25
RYAT | ≤ 0.25
QAMT | ≤ 0.25
PNHA | ≤ 0.25
DGMQ | ≤ 0.25
HSIR | ≤ 0.25
GLKV | ≤ 0.25
KAAN | ≤ 0.25
CHFH | ≤ 0.25
QIYG | ≤ 0.25
LNIL | ≤ 0.25
TDFL | ≤ 0.25
PTKY | ≤ 0.25
FWTY | ≤ 0.25
GGGF | ≤ 0.25
YNYC | ≤ 0.25
RKAK | ≤ 0.25
WLYT | ≤ 0.25
ARWW | ≤ 0.25
HSKM | ≤ 0.25
PVRQ | ≤ 0.25
TRPR | ≤ 0.25

Variant | enrichment ratio
IVMH | ≤ 0.25
GTYG | ≤ 0.25
NTLQ | ≤ 0.25
VPPV | ≤ 0.25
WFWV | ≤ 0.25
YIHT | ≤ 0.25
DQWN | ≤ 0.25
KKWM | ≤ 0.25
AYEF | ≤ 0.25
TNKY | ≤ 0.25
HEWP | ≤ 0.25
DVGK | ≤ 0.25
VTRE | ≤ 0.25
GVAW | 4.77
SIPC | 1.34
RSIE | ≤ 0.25
WEKL | ≤ 0.25
MRLQ | ≤ 0.25
ITKL | ≤ 0.25
AHCM | 9.33
YGAF | ≤ 0.25
PRID | ≤ 0.25
HSYE | ≤ 0.25
ITFE | ≤ 0.25

Variant | enrichment ratio
SMQM | 20.4
FNAE | ≤ 0.25
YHAY | ≤ 0.25
AMCH | 8.89
QMDC | ≤ 0.25
THGY | 13.8
LWVV | ≤ 0.25
VVDL | ≤ 0.25
MELF | 0.528
TNPY | ≤ 0.25
FKNY | ≤ 0.25
SEFC | 10.4
TDFI | ≤ 0.25
FPDK | ≤ 0.25
NLCP | ≤ 0.25
KVDG | ≤ 0.25
KDIY | ≤ 0.25
FFGQ | ≤ 0.25
YQKA | ≤ 0.25
PKLQ | ≤ 0.25
VMPS | 0.518
AQSH | 2.81
DPSH | ≤ 0.25
GRLQ | ≤ 0.25

Variant | enrichment ratio
SAGE | 3.06
SVVS | 3.15
MNAQ | 11.8
YSNQ | ≤ 0.25
MGFE | 5.11
VMMP | ≤ 0.25
KLVH | ≤ 0.25
IYCM | ≤ 0.25
VCPK | ≤ 0.25
YLWV | ≤ 0.25
ITEH | ≤ 0.25
VEYV | ≤ 0.25
FCSS | ≤ 0.25
MMSE | ≤ 0.25
VQRM | ≤ 0.25
FVKA | ≤ 0.25
QTSR | ≤ 0.25
ADTQ | ≤ 0.25
KFPE | ≤ 0.25
DCVF | ≤ 0.25
SRFK | ≤ 0.25
LIGR | ≤ 0.25
GTTK | ≤ 0.25
TVFS | ≤ 0.25

Variant | enrichment ratio
FAMF | 2.8
SMYT | 0.381
SGWG | ≤ 0.25
FMLT | ≤ 0.25
NKIS | ≤ 0.25
MTSD | ≤ 0.25
NALI | 4.49
HKEF | ≤ 0.25
NNLP | ≤ 0.25
MSCW | ≤ 0.25
NGMD | ≤ 0.25
FCYH | ≤ 0.25
WGIQ | ≤ 0.25
KAEK | ≤ 0.25
HFTV | ≤ 0.25
TGFQ | 2.99
KTIW | ≤ 0.25
GVTV | ≤ 0.25
EHNV | ≤ 0.25
FWGC | ≤ 0.25
YPVA | ≤ 0.25
FPTL | ≤ 0.25
RIGQ | ≤ 0.25
HMQV | ≤ 0.25

Variant | enrichment ratio
NTYK | ≤ 0.25
QFQI | ≤ 0.25
KYMG | ≤ 0.25
VESL | ≤ 0.25
LQWK | ≤ 0.25
RIHY | ≤ 0.25
RVHT | ≤ 0.25
RMFW | ≤ 0.25
ICPI | ≤ 0.25
GRLF | 0.486
IFGH | ≤ 0.25
VWFH | ≤ 0.25
TTQP | ≤ 0.25
EHSG | ≤ 0.25
MSQS | ≤ 0.25
MQFY | ≤ 0.25
IWAT | ≤ 0.25
RHRH | ≤ 0.25
NLFI | ≤ 0.25
THQQ | ≤ 0.25
TYGR | ≤ 0.25
IQKL | ≤ 0.25
HFYF | ≤ 0.25
YMNG | ≤ 0.25

Variant | enrichment ratio
MYVF | ≤ 0.25
GHSC | ≤ 0.25
INGH | ≤ 0.25
THSY | 6.95
NIRI | ≤ 0.25
NRTQ | ≤ 0.25
GKSA | ≤ 0.25
LVCT | ≤ 0.25
GPLD | ≤ 0.25
GDNS | ≤ 0.25
WRTG | ≤ 0.25
WSNI | ≤ 0.25
RNWT | ≤ 0.25
YEIP | ≤ 0.25
EPQI | ≤ 0.25
HQLF | 0.627
IMFY | ≤ 0.25
FFCK | ≤ 0.25
ADVF | ≤ 0.25
DMHT | ≤ 0.25
FKMM | ≤ 0.25
IDGG | ≤ 0.25
WALM | 6.02
NFMA | ≤ 0.25

Variant | enrichment ratio
HVLD | ≤ 0.25
NGLR | ≤ 0.25
RTRL | ≤ 0.25
WITW | ≤ 0.25
ECGY | ≤ 0.25
YFPN | ≤ 0.25
QCCS | ≤ 0.25
EIPN | ≤ 0.25
ITWH | ≤ 0.25
PPCV | ≤ 0.25
DCEC | ≤ 0.25
TAMF | 19.6
TPSN | ≤ 0.25
SLAN | 13.8
GHHV | ≤ 0.25
LKLT | ≤ 0.25
SCDN | ≤ 0.25
SVSC | 10.1
DTVI | ≤ 0.25
NTSM | ≤ 0.25
HRRY | ≤ 0.25
LSDA | ≤ 0.25
TNIK | ≤ 0.25
DGNS | ≤ 0.25

Variant | enrichment ratio
FHSK | ≤ 0.25
TAPC | ≤ 0.25
FHGF | 1.06
HGAC | ≤ 0.25
IWNY | ≤ 0.25
NSAM | ≤ 0.25
RQKA | ≤ 0.25
QSMH | ≤ 0.25
NSPM | ≤ 0.25
HHYD | ≤ 0.25
HLTR | ≤ 0.25
DRYC | ≤ 0.25
RSCC | ≤ 0.25
NNHK | ≤ 0.25
DDYM | ≤ 0.25
SMSM | 12.4
YQAP | ≤ 0.25
QLPH | ≤ 0.25
IQVT | ≤ 0.25
NCAT | ≤ 0.25
SLSG | 11.8
DQGF | ≤ 0.25
RRRR | ≤ 0.25
MPFV | ≤ 0.25

Variant | enrichment ratio
MDRY | ≤ 0.25
KQSY | ≤ 0.25
EYNL | ≤ 0.25
AYNK | ≤ 0.25
RFIL | 1.24
HQTH | ≤ 0.25
SYFY | ≤ 0.25
RNAE | ≤ 0.25
IQAK | ≤ 0.25
TICT | 7.58
RGVL | ≤ 0.25
NKKC | ≤ 0.25
SFSR | ≤ 0.25
WASM | ≤ 0.25
YTSN | ≤ 0.25
ITFP | ≤ 0.25
YQIG | ≤ 0.25
KEEG | ≤ 0.25
